Some of the results follow. Antibody binding of pooled human sera (four to six donors per pool; dilution not stated) to peptides of the Trypanosoma cruzi antigen TSSA on microarrays. Quantile-normalised fluorescence in arbitrary units, mean of duplicate arrays; higher = more binding. No active / inactive call. The uninfected pools are read here as the healthy donors of the same country. The strongest signals lie near the top of the scale (about 60,000).
What was measured:
Assay in all cases: antibody binding signal (normalised fluorescence) (arbitrary fluorescence units); higher = stronger serum antibody binding to peptide
[1] = system: pooled sera of chronic Chagas disease patients, Argentina
Protocol: (§1)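 Microarray of 15-residue peptides over residues 30-55 of Trypanosoma cruzi TSSAII, each with 1 to 10 substitutions at naturally variable positions, probed with one serum pool per country.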

[2] = system: pooled sera of chronic Chagas disease patients, Bolivia
Protocol: as §1

[3] = system: pooled sera of chronic Chagas disease patients, Brazil
Protocol: as §1

[4] = system: pooled sera of chronic Chagas disease patients, Colombia
Protocol: as §1

[5] = system: pooled sera of chronic Chagas disease patients, Mexico
Protocol: as §1

[6] = system: pooled sera of chronic Chagas disease patients, USA
Protocol: as §1

[7] = system: pooled sera of uninfected people, Argentina
Protocol: as §1

[8] = system: pooled sera of uninfected people, Bolivia
Protocol: as §1

[9] = system: pooled sera of uninfected people, Brazil
Protocol: as §1

[10] = system: pooled sera of uninfected people, Colombia
Protocol: as §1

[11] = system: pooled sera of uninfected people, Mexico
Protocol: as §1

[12] = system: pooled sera of uninfected people, USA
Protocol: as §1

Sequence	antibody binding signal [1]	antibody binding signal [2]	antibody binding signal [3]	antibody binding signal [4]	antibody binding signal [5]	antibody binding signal [6]	antibody binding signal [7]	antibody binding signal [8]	antibody binding signal [9]	antibody binding signal [10]	antibody binding signal [11]	antibody binding signal [12]
TDKKAATGGTPSPSG	1400	874	342	2190	625	1170	245	107	693	1160	119	176
TDKKAAAGETPSQPG	1770	2760	32400	323	217	2630	122	333	175	819	211	159
PPSGTEKKPATGEAP	47400	50500	47000	787	9750	37300	1770	1070	1150	466	352	453
SGKENKPATGETPSQ	36300	26600	36400	1230	2130	23400	8610	4310	163	328	2110	220
GTENKAATGGTPSPS	35700	1580	1120	1840	2290	1020	183	478	432	479	154	118
SGKDKKAAAGGTPSQ	605	225	310	3350	1580	2290	130	123	488	162	87.1	97.5
SGTDNKAATGGTPSP	666	1010	43600	937	506	228	216	711	1380	436	167	226
GTDNKPAAGGTPSQP	4280	1090	42600	2070	314	356	236	738	1260	431	831	114
TDKKTATGETPSQSG	628	1170	4440	244	287	6770	319	184	316	127	242	113
PPSGTENKAATGETP	43300	36700	40900	349	5200	18100	1650	437	343	331	268	306
KPATGEAPSPPGASS	50700	48000	48500	333	283	39900	956	829	208	163	182	201
KTAAGGAPSPPGASS	157	215	585	7200	872	642	274	122	114	99	89.8	171
PSGTEKKAATGETPS	6080	4010	10500	1350	1750	12600	657	362	322	629	233	317
TDNKTATGEAPSQSG	15300	31500	24500	154	327	22900	190	302	241	169	158	119
TSSTPPSGTEKKPAA	46200	6280	44400	850	39400	11700	2120	902	289	165	227	885
EKKAATGGTPSPPGA	757	659	542	1760	1100	1160	303	974	973	1470	188	836
GTEKKPATGGAPSPP	5350	1000	2620	3430	3350	3890	427	1940	659	119	401	1420
TISTPPSGKDKKPAA	24900	827	5440	227	47000	721	469	153	150	162	103	118
TENKPAAGETPSQSG	44600	959	21000	345	444	3860	164	409	238	178	230	161
TDKKAAAGGAPSQSG	1130	234	505	5040	618	347	150	111	368	248	117	122
EKKTAAGEAPSPSGA	1260	258	686	675	489	5860	259	1140	133	1300	202	889
SGKEKKAATGGTPSQ	2170	370	2620	2590	5560	5250	186	92.2	176	393	87.4	108
TSSTPPSGKENKAAT	14900	4110	9040	1410	3600	2290	3080	1080	145	742	150	365
KENKPATGETPSQPG	39700	21400	43600	308	682	26400	402	900	302	266	1720	237
TDKKTATGETPSPSG	490	705	872	246	295	7630	252	222	287	119	317	2600

Sequence	antibody binding signal [1]	antibody binding signal [2]	antibody binding signal [3]	antibody binding signal [4]	antibody binding signal [5]	antibody binding signal [6]	antibody binding signal [7]	antibody binding signal [8]	antibody binding signal [9]	antibody binding signal [10]	antibody binding signal [11]	antibody binding signal [12]
DNKTATGGTPSQSGA	453	1100	695	814	384	647	432	202	565	214	701	186
KDNKAATGGTPSQSG	285	337	311	280	215	188	248	604	195	175	99.4	111
PPSGTENKAATGEAP	44400	40300	46000	275	3370	29300	1740	396	261	312	214	449
TENKAAAGGAPSQSG	25100	432	1800	2680	529	358	362	188	217	218	156	286
PSGTDNKAATGETPS	11300	21200	43300	380	347	11400	153	556	1090	274	186	136
TSSTPPSGKDKKAAA	29300	680	1350	454	46500	785	316	319	130	151	92.2	189
TENKAAAGGTPSPSG	35400	262	235	3340	357	1120	89.9	182	1590	442	144	140
KKPAAGEAPSPSGAS	200	326	2740	166	189	11900	342	246	96.5	125	69.5	484
SGTDKKAAAGEAPSQ	390	10400	13400	4120	452	11000	119	164	169	209	883	125
TISTPPSGTDKKPAT	38100	11900	44600	11000	51300	8110	663	183	354	362	5010	449
GKDKKTAAGGAPSPP	193	239	199	2580	429	526	117	88.6	147	163	105	105
DNKPAAGETPSQPGA	1480	4480	38800	299	207	4800	129	703	353	344	341	142
ISTPPSGTDKKTATG	30500	13600	29500	6200	35600	4070	372	128	211	209	902	185
PSGKENKPATGEAPS	51600	44700	53000	3660	4460	43400	7750	4550	422	568	653	369
GTDKKAAAGGTPSPS	246	201	181	4270	382	1570	100	195	970	181	118	122
DNKAATGEAPSPPGA	22000	37200	36500	139	159	24500	138	111	216	121	120	112
TEKKTAAGETPSPPG	669	289	396	511	414	3070	136	212	212	633	233	991
TDNKPATGEAPSPPG	41500	49900	48500	423	183	40600	861	606	314	160	293	129
TPPSGTENKAATGEA	42300	38200	43500	216	1640	19100	1760	267	273	356	232	201
GTEKKTATGGAPSPP	2650	308	1920	4230	2950	2490	357	744	202	110	218	153
KEKKPATGGAPSPSG	434	333	259	636	2010	932	226	207	101	102	84	288
TISTPPSGKENKTAT	17900	11800	10600	1630	4530	2550	2660	1430	326	667	391	486
SGKEKKTAAGGTPSP	2310	271	2080	7910	4640	4950	144	96.8	295	157	141	166
GTENKPAAGETPSQP	43800	6550	39100	517	1310	4740	285	1260	286	198	188	115
TISTPPSGTDNKTAA	33300	44700	48800	1210	13200	18600	3480	879	1870	418	242	554
